In all, about 2,900 compounds were measured (“NF-kB SEAP reporter activity, fold change vs agonist alone”: median about 0.99, highest 2% from about 2.6 on). The list shows a part of the results.
Assays:
RAW-Dual [1] = experiment: NF-kB SEAP reporter activity, fold change vs agonist alone; cytotoxicity flag (confluency mask): cytotoxic (confluency <70% of control); higher = enhanced NF-kB activity
How it was run: (§1)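 Cytotoxic wells were those whose IncuCyte confluency was below 70% of agonist controls in both mask sets. The cells were RAW-Dual macrophages at 50,000 cells/well in DMEM on 384-well plates, dosed with 50 nL of library stock by pin tool, stimulated with a PRR agonist 1 h later, and kept at 37 °C, 5% CO2 for 20 hours. IRF and NF-κB reporter activity, as fold change over agonist-alone wells, came from supernatant read by QuantiLuc luminescence and QuantiBlue absorbance, respectively.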

RAW-Dual [2] = experiment: NF-kB SEAP reporter activity, fold change vs agonist alone; higher = enhanced NF-kB activity
How it was run: as §1

RAW-Dual [3] = experiment: NF-kB SEAP reporter activity, fold change vs agonist alone; cytotoxicity flag (confluency mask): not cytotoxic; higher = enhanced NF-kB activity
How it was run: as §1

[4] = agonist: ODN 1826 (TLR9) 0.5 ug/mL
[5] = agonist: Pam2CSK4 (TLR2/6) 0.1 ug/mL
[6] = agonist: Pam3CSK4 (TLR2/1) 0.1 ug/mL
[7] = library stock concentration (final ~1000-fold dilution): 10 mM, cytotoxicity flag (confluency mask): not cytotoxic, agonist: Imiquimod (TLR7) […]
[8] = library stock concentration (final ~1000-fold dilution): 10 mM, cytotoxicity flag (confluency mask): not cytotoxic, agonist: MPLA (TLR4) […]

CN1CCN(CCCN2c3ccccc3Sc3ccc(C(F)(F)F)cc32)CC1.Cl.Cl (library stock concentration (final ~1000-fold dilution): 10 mM)
NF-kB SEAP reporter activity (RAW-Dual [1]; agonist: LPS (TLR4) 0.1 ug/mL): 0.953 | NF-kB SEAP reporter activity (RAW-Dual [1]; [4]): 0.573 | NF-kB SEAP reporter activity (RAW-Dual [1]; [5]): 0.723 | NF-kB SEAP reporter activity (RAW-Dual [1]; [6]): 0.949

CN1CCN(CCCN2c3ccccc3Sc3ccc(C(F)(F)F)cc32)CC1.Cl.Cl
NF-kB SEAP reporter activity (RAW-Dual [2]; library stock concentration (final ~1000-fold dilution): 10 mM, cytotoxicity flag (confluency mask): cytotoxic (confluency <70% of control), agonist: Imiquimod (TLR7) […]): 2.02 | NF-kB SEAP reporter activity (RAW-Dual [2]; library stock concentration (final ~1000-fold dilution): 10 mM, cytotoxicity flag (confluency mask): cytotoxic (confluency <70% of control), agonist: MPLA (TLR4) […]): 1.44

CCOc1cn(-c2ccc(F)cc2C)nc1C(=O)Nc1ccc(Oc2ccnc3cc(OC)c(OC)cc23)c(F)c1 (library stock concentration (final ~1000-fold dilution): 10 mM)
NF-kB SEAP reporter activity (RAW-Dual [3]; agonist: LPS (TLR4) 0.1 ug/mL): 0.647 | NF-kB SEAP reporter activity (RAW-Dual [3]; [4]): 0.777 | NF-kB SEAP reporter activity (RAW-Dual [3]; [5]): 0.404 | NF-kB SEAP reporter activity (RAW-Dual [3]; [6]): 0.285

CCOc1cn(-c2ccc(F)cc2C)nc1C(=O)Nc1ccc(Oc2ccnc3cc(OC)c(OC)cc23)c(F)c1
NF-kB SEAP reporter activity (RAW-Dual [2]; [7]): 0.965 | NF-kB SEAP reporter activity (RAW-Dual [2]; [8]): 0.825

CN1c2c(nc(N)[nH]c2=O)NC[C@@H]1CNc1ccc(C(=O)N[C@@H](CCC(=O)O)C(=O)O)cc1 (library stock concentration (final ~1000-fold dilution): 10 mM)
NF-kB SEAP reporter activity (RAW-Dual [3]; agonist: LPS (TLR4) 0.1 ug/mL): 1.18 | NF-kB SEAP reporter activity (RAW-Dual [3]; [4]): 0.91 | NF-kB SEAP reporter activity (RAW-Dual [3]; [5]): 0.69 | NF-kB SEAP reporter activity (RAW-Dual [3]; [6]): 0.862

CN1c2c(nc(N)[nH]c2=O)NC[C@@H]1CNc1ccc(C(=O)N[C@@H](CCC(=O)O)C(=O)O)cc1
NF-kB SEAP reporter activity (RAW-Dual [2]; [7]): 0.955 | NF-kB SEAP reporter activity (RAW-Dual [2]; [8]): 0.952

COCc1ccc(-c2ccc3ncc(C(N)=O)c(NC(C)C4CCOCC4)c3c2)cn1 (configuration not stated) (library stock concentration (final ~1000-fold dilution): 10 mM)
NF-kB SEAP reporter activity (RAW-Dual [3]; agonist: LPS (TLR4) 0.1 ug/mL): 1.75 | NF-kB SEAP reporter activity (RAW-Dual [3]; [4]): 1.19 | NF-kB SEAP reporter activity (RAW-Dual [3]; [5]): 1.45 | NF-kB SEAP reporter activity (RAW-Dual [3]; [6]): 2.13

COCc1ccc(-c2ccc3ncc(C(N)=O)c(NC(C)C4CCOCC4)c3c2)cn1 (configuration not stated)
NF-kB SEAP reporter activity (RAW-Dual [2]; [7]): 0.993 | NF-kB SEAP reporter activity (RAW-Dual [2]; [8]): 1.35

O=c1cc(-c2ccc(O)cc2)oc2c(C3OC(CO)C(O)C(O)C3O)c(O)cc(O)c12 (configuration not stated) (library stock concentration (final ~1000-fold dilution): 10 mM)
NF-kB SEAP reporter activity (RAW-Dual [3]; agonist: LPS (TLR4) 0.1 ug/mL): 0.978 | NF-kB SEAP reporter activity (RAW-Dual [3]; [4]): 0.919 | NF-kB SEAP reporter activity (RAW-Dual [3]; [5]): 1 | NF-kB SEAP reporter activity (RAW-Dual [3]; [6]): 1.31

O=c1cc(-c2ccc(O)cc2)oc2c(C3OC(CO)C(O)C(O)C3O)c(O)cc(O)c12 (configuration not stated)
NF-kB SEAP reporter activity (RAW-Dual [2]; [7]): 0.887 | NF-kB SEAP reporter activity (RAW-Dual [2]; [8]): 0.994

CCCC(C)NC(=O)c1ccc(Cl)c(Cl)c1 (configuration not stated) (library stock concentration (final ~1000-fold dilution): 10 mM)
NF-kB SEAP reporter activity (RAW-Dual [3]; agonist: LPS (TLR4) 0.1 ug/mL): 1.37 | NF-kB SEAP reporter activity (RAW-Dual [3]; [4]): 0.982 | NF-kB SEAP reporter activity (RAW-Dual [3]; [5]): 1.07 | NF-kB SEAP reporter activity (RAW-Dual [3]; [6]): 1.21

CCCC(C)NC(=O)c1ccc(Cl)c(Cl)c1 (configuration not stated)
NF-kB SEAP reporter activity (RAW-Dual [2]; [7]): 1 | NF-kB SEAP reporter activity (RAW-Dual [2]; [8]): 1.21

CN(C)c1ccc(O)c2c1CC1CC3C(N(C)C)C(O)=C(C(N)=O)C(=O)C3(O)C(O)=C1C2=O.Cl (configuration not stated) (library stock concentration (final ~1000-fold dilution): 2 mM water)
NF-kB SEAP reporter activity (RAW-Dual [3]; agonist: LPS (TLR4) 0.1 ug/mL): 1.09 | NF-kB SEAP reporter activity (RAW-Dual [3]; [4]): 1.17 | NF-kB SEAP reporter activity (RAW-Dual [3]; [5]): 1.11 | NF-kB SEAP reporter activity (RAW-Dual [3]; [6]): 0.922

CN(C)c1ccc(O)c2c1CC1CC3C(N(C)C)C(O)=C(C(N)=O)C(=O)C3(O)C(O)=C1C2=O.Cl (configuration not stated)
NF-kB SEAP reporter activity (RAW-Dual [2]; library stock concentration (final ~1000-fold dilution): 2 mM water, cytotoxicity flag (confluency mask): not cytotoxic, agonist: Imiquimod (TLR7) […]): 0.904 | NF-kB SEAP reporter activity (RAW-Dual [2]; library stock concentration (final ~1000-fold dilution): 2 mM water, cytotoxicity flag (confluency mask): not cytotoxic, agonist: MPLA (TLR4) […]): 1.07
